The source of these data is PubChem BioAssay AID485344 (National Center for Advancing Translational Sciences (NCATS), 2010).

Screen size: about 340,000 compounds; about 6,900 (2%) were called active. No stated cut-off is given here; in the data, active means inhibition above about 30%; inactive means below that, where a call was filed. The list shows a part of the results, in another mix than the full data. Where no call is shown, the source filed none.

The target in the assay is D(2) dopamine receptor (Homo sapiens) (UniProt P14416). The experiment in a line: HTS Assay for Allosteric Antagonists of the Human D2 Dopamine Receptor: Primary Screen for Antagonists. Further: 0% is about no effect. As to conditions: HEK293 TREx D2 cells, calcium flux, dopamine EC80; at 10 µM; stronger effect = higher value. Summed up: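 Overnight-induced (tetracycline, 30 C) HEK293 T-REx cells carrying force-coupled D2 receive a no-wash calcium dye, then compound, then EC80 dopamine at 180 s; signals are read kinetically throughout.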
Chain of UniProt P14416 (P14416 whole entry, looked up): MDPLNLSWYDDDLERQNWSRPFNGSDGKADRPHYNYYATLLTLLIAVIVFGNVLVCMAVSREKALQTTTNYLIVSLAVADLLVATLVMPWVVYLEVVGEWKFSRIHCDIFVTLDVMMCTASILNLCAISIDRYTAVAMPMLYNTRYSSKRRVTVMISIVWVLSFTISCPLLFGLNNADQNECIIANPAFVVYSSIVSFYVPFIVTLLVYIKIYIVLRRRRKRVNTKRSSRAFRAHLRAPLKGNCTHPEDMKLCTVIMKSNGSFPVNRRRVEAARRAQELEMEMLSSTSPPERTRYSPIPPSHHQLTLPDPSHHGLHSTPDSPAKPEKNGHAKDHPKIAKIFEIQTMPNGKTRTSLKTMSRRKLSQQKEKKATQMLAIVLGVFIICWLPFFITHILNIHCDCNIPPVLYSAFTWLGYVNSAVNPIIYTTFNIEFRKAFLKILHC
One may read the inhibition as the drop in the measured response relative to a control, in per cent. For the molecule `CCOc1ccc(Nc2oc(-c3ccc(COc4ccc(C)cc4)o3)nc2C#N)cc1`, the inhibition is -4.11%.

As for `CC1CCCN(S(=O)(=O)c2cc(C(=O)NCCc3ccccc3)n(C)c2)C1` (stereo unspecified), the inhibition is -7.12%.

Take `COc1ccc(CNC(=O)c2ccc3c(c2)CCN3S(=O)(=O)c2ccccc2)cc1`: the inhibition is -16.3%.

As to `Cc1ccccc1CNC(=O)c1ccc(Cn2c(SCc3ccccc3)nc3cccnc32)cc1`, the inhibition worked out at 3.96%.

On to `O=C(Nc1cccs1)Nc1cccnc1Cl`, for which the inhibition is active: 36.7%.

`CC(=O)N(CCC1(C(C)C)CCOC(C)(C)C1)Cc1ccco1` (stereo unspecified): the inhibition is active: 38.4%.

In the case of `CCC1(c2ccccc2)NC(=O)N(CC(=O)NNC(=O)CCN2CCN(c3ccccc3)CC2)C1=O` (stereo unspecified), the inhibition was active: 88.6%.

For the molecule `COc1ccc(OC)c(S(=O)(=O)NCc2ccc3c(c2)CCN3C(=O)c2cccc(C)c2)c1`, the inhibition was found to be 2.44%.

On to `Cc1cccc(N2C(=O)N(Cc3ccc(C(C)(C)C)cc3)c3ccccc3S2(=O)=O)c1`, for which the inhibition was -25.4%.

Regarding `CCCOCc1cc(CN2CCN(c3ccccc3OC)CC2)c(O)c2ncccc12`, the inhibition was found to be 2.37%.

With `O=C(NCc1ccc(Cl)cc1)c1cnc(N2CCOCC2)c2ccccc12`, the inhibition was 1.52%.

In the case of `COc1ccccc1NC(=O)C1=C(C)Nc2nc(SCC(=O)c3ccc(C)cc3)nn2C1c1ccc(F)cc1` (stereo unspecified), the inhibition was found to be 0.721%.

In the case of `Cc1ccc(CSCCNC(=O)CN(c2cccc(C)c2C)S(=O)(=O)c2ccccc2)cc1`, the inhibition was -13.4%.

With `CC(C)COc1ccc(C(=O)N2CCC(c3nc4ccccc4s3)CC2)cc1`, the inhibition turned out to be 3.24%.

`Cc1ccc2occ(CC(=O)Nc3c(C(=O)Nc4ccc(Cl)cc4)oc4ccccc34)c2c1`: the inhibition is -1.86%.

For the molecule `O=C(CC1N=C2c3ccccc3N=C(SCC(=O)Nc3ccccc3F)N2C1=O)NCc1ccc2c(c1)OCO2` (stereo unspecified), the inhibition came to 7.69%.

In the case of `CN(C(=O)CSc1nc2ccccc2[nH]1)c1ccc(F)cc1`, the inhibition was determined as 3.41%.

`Cc1ccc(CSc2nncn3c2cc2sccc23)cc1`: the inhibition is -7.96%.

Take `COc1ccc(N2CCN(c3nc4ccccc4n4c(C)nnc34)CC2)cc1`: the inhibition was 6.39%.

For `CCOC(=O)CC(NS(=O)(=O)c1cc(-c2cc(C)no2)ccc1C)c1ccc(C)cc1` (stereo unspecified), the inhibition stood at 5.34%.

As for `CC(C)CCn1c(=O)c2sccc2n2c(CCCC(=O)Nc3ccc(C(C)C)cc3)nnc12`, the inhibition turned out to be 5.22%.

Take `CC(Oc1ccccc1)C(=O)Nc1c2c(nn1-c1ccccc1)CS(=O)C2` (stereo unspecified): the inhibition is active: 30.2%.

Regarding `CCOc1ccc(C(=O)Nc2ccc3nc4c(c(Nc5ccccc5OC)c3c2)CCCC4)cc1`, the inhibition was 5.75%.

With `CCC1CCc2sc(C(=O)NC3CCN(Cc4ccccc4)CC3)cc2C1` (stereo unspecified), the inhibition is active: 76.8%.

As to `CCOc1ccc2nc(NC(=O)c3nc(SCc4ccc(C)cc4)ncc3Cl)sc2c1`, the inhibition was determined as 0.859%.

For the molecule `O=C(Cn1c(=O)n(Cc2ccc(C(=O)NCc3ccc4c(c3)OCO4)cc2)c(=O)c2ccccc21)Nc1cccc(Cl)c1`, the inhibition is -18.6%.

As to `O=C1Cc2cc(S(=O)(=O)N3CCCCC3)cc3c2N1CCC3`, the inhibition came to 18.1%.

Consider `Cc1ccc(N2CC(NC(=O)Cc3ccc(F)cc3)CC2=O)cc1` (stereo unspecified), for which the inhibition is -4.79%.

`Cc1cccc(CSc2nc(=O)c3c(n2C)NC(=O)CC3c2cccc(O)c2)c1` (stereo unspecified): the inhibition was -11.5%.

On to `Cc1ccc2c(c1)sc1nc(-c3cc4cc(Cl)ccc4oc3=O)cn12`, for which the inhibition is -22.9%.

For `COc1ccccc1NC(=O)Cn1c(=O)n(-c2cccc(Cl)c2)c(=O)c2sc3ccccc3c21`, the inhibition was 3.82%.

As for `CCOC(=O)c1cc(-c2ccc(C)cc2)n(CCC(=O)Nc2cc(Cl)ccc2C)c1C`, the inhibition was 12.1%.

Turning to `O=S(=O)(NCC1CCCO1)c1ccc(S(=O)(=O)N(Cc2ccccn2)C2CC2)cc1` (stereo unspecified), the inhibition is active: 74.1%.

For `CCOc1ccc(CCNC(=O)c2cc(Nc3ccc(C)cc3C)nc3ccccc23)cc1OCC`, the inhibition turned out to be 1.09%.

For `CC1CCN(S(=O)(=O)c2ccc3[nH]cc(C(=O)NCc4ccc(F)cc4)c(=O)c3c2)CC1`, the inhibition came out at 6.79%.

Consider `CCc1ccc(C2CC(=O)c3c([nH]c(C(=O)OCc4ccc(C)cc4)c3C)C2)cc1` (stereo unspecified), for which the inhibition worked out at 2.86%.

For `Cc1noc(-c2ccc(-c3noc(-c4ccccc4)n3)cc2)n1`, the inhibition is -21.3%.

For `Cc1ccc(SC[C@H](c2ccccc2)N2CCN(CCc3ccccc3)CCC2=O)cc1`, the inhibition was active: 40.7%.

In the case of `O=C(NCCc1ccc(Cl)cc1)c1ccc(CS(=O)(=O)Cc2ccc(Cl)cc2)o1`, the inhibition is 25.3%.

As to `Cc1cc(C)cc(NC(=O)Cn2c(=O)n(CC(=O)NCCc3ccccc3)c(=O)c3ccccc32)c1`, the inhibition is 4.55%.

As for `COc1cc(OC)c(C(=O)Oc2ccc3c(c2)OCO3)cc1OC`, the inhibition was active: 30.2%.

With `Cc1ccc(C(=O)c2cn(Cc3c(F)cccc3Cl)c3nc(C)ccc3c2=O)cc1`, the inhibition was 0.933%.

Regarding `Cc1ccc(CNC(=O)CN2C(=O)COc3ccccc32)cc1`, the inhibition was -4.04%.

For the molecule `CCOC(=O)c1c(C)[nH]c(C)c1S(=O)(=O)N(C)CC(=O)N1CCN(c2cccc(Cl)c2)CC1`, the inhibition was -4.69%.

Take `Cn1c(=O)c2c(nc(N3CCOCC3)n2Cc2ccccc2)n(C)c1=O`: the inhibition is -2.26%.

For `Cc1cccc(C)c1NC(=O)Cn1cc(S(=O)(=O)Cc2ccc(F)cc2)c2ccccc21`, the inhibition was 9.04%.

`COC(=O)C1C(c2ccccc2)C(C(=O)N2CCN(C)CC2)C1c1ccccc1` (stereo unspecified): the inhibition was active: 33.1%.

For the molecule `Cc1ccc(CNC(=O)c2cccc(Nc3nc4ccccc4n4nnnc34)c2)cc1`, the inhibition was -15.4%.

On to `CCc1ccc(NC(=O)CCNC(=O)Cn2cnc3ccccc3c2=O)cc1`, for which the inhibition is -7.14%.

For `COc1cccc(OCC(O)CN2CCN(c3ccc(F)cc3)CC2)c1` (stereo unspecified), the inhibition was active: 80.4%.

`Cc1ccc(NC(=O)Cn2ncn3c(cc4ccccc43)c2=O)cc1C`: the inhibition amounted to 12.2%.

On to `COc1cc(OC)c(NC(=O)c2c(C)oc3ncnc(N4CCCCC4)c23)cc1Cl`, for which the inhibition is -7.61%.

On to `COC(=O)c1ccccc1NC(=O)Cn1c(=O)n(CCCCC(=O)NCc2ccc3c(c2)OCO3)c(=O)c2ccccc21`, for which the inhibition is -6.89%.

For `Cc1ccc(N2CCN(c3nc4ccccc4c4nnc(C)n34)CC2)c(C)c1`, the inhibition was -10.5%.

For `CCNc1sc(S(C)(=O)=O)nc1S(=O)(=O)c1ccc(C)cc1`, the inhibition was -0.756%.

`Cc1ccc(Cn2c(=O)n(Cc3ccccc3Cl)c(=O)c3cccnc32)cc1`: the inhibition is 5.97%.

Turning to `CCCCc1nn2c(=O)cc(COC(=O)c3cccs3)nc2s1`, the inhibition was -4.38%.

Turning to `Clc1cccc(-n2ncc3c(N4CCCCCC4)ncnc32)c1`, the inhibition was determined as 20.7%.

For the molecule `Cc1cc(C(=O)N2CCN(c3cc(Cl)ccc3C)CC2)c2c(C)nn(-c3ccccc3)c2n1`, the inhibition was -4.7%.

Take `O=C(CSc1nc2ccccc2nc1Cc1ccccc1)N1CCCc2ccccc21`: the inhibition was determined as 22.1%.

As to `CCCc1cc(=O)[nH]c(Nc2ccc(O)cc2C)n1`, the inhibition was -6.54%.
